# From the supplement of paper PMC4604168 (melanoma cell lines)
# Some of the results follow. Repeats are few or missing, and single values can be far off.
# What was measured:
# Test in all cases: cell count relative to DMSO control; melanoma cells; higher = more viable cells
# Settings in all cases: library dose: low library concentration; 72 h
# MZ2-MEL = system: MZ2-MEL
# MeWo = system: MeWo
# RPMI7951 = system: RPMI7951
# RVH-421 = system: RVH-421
# SkMel28 = system: SkMel28
# SkMel2 = system: SkMel2
# SkMel30 = system: SkMel30
# UACC62 = system: UACC62
# WM115 = system: WM115
# WM1716 = system: WM1716
# WM1745 = system: WM1745
# WM3526 = system: WM3526
# WM3619 = system: WM3619
# WM451Lu = system: WM451Lu
# 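Further: cell number obtained by counting DAPI-stained nuclei in high-throughput microscope images with image analysis software, screen run in 1,536-well plates.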
Structure (SMILES),cell count (MZ2-MEL) [%],cell count (MeWo) [%],cell count (RPMI7951) [%],cell count (RVH-421) [%],cell count (SkMel28) [%],cell count (SkMel2) [%],cell count (SkMel30) [%],cell count (UACC62) [%],cell count (WM115) [%],cell count (WM1716) [%],cell count (WM1745) [%],cell count (WM3526) [%],cell count (WM3619) [%],cell count (WM451Lu) [%]
"Cc1ccc(Nc2nccc(N(C)c3ccc4c(C)n(C)nc4c3)n2)cc1S(N)(=O)=O [Pazopanib] + Cn1c(=O)n(-c2ccc(C(C)(C)C#N)cc2)c2c3cc(-c4cnc5ccccc5c4)ccc3ncc21 [NVP-BEZ235] (first compound 0.4 µM, partner dose 0.004 µM)",68.2,84,75.5,123,74.3,95.7,82.4,78.7,83.8,77.9,95.7,86.1,80.7,83.5
"O=C(/C=C/c1cccnc1)NCCCCC1CCN(C(=O)c2ccccc2)CC1 + CS(=O)(=O)CCNCc1ccc(-c2ccc3ncnc(Nc4ccc(OCc5cccc(F)c5)c(Cl)c4)c3c2)o1 [lapatinib] (first compound 0.01 µM, partner dose 0.8 µM)",39.2,85.1,101,51.8,89.3,23.6,103,76.3,93.7,105,125,89.3,89,75.1
"Cc1ccc(Nc2nccc(N(C)c3ccc4c(C)n(C)nc4c3)n2)cc1S(N)(=O)=O [Pazopanib] + NC1(c2ccc(-c3nc4ccn5c(=O)[nH]nc5c4cc3-c3ccccc3)cc2)CCC1 [MK2206] (first compound 0.4 µM, partner dose 0.4 µM)",70.1,98.1,89.3,117,94.3,93.2,89.4,73.5,90.5,99.8,94.8,83.6,110,97.5
"CC1(C)CCC(c2ccc(Cl)cc2)=C(CN2CCN(c3ccc(C(=O)NS(=O)(=O)c4ccc(N[C@H](CCN5CCOCC5)CSc5ccccc5)c(S(=O)(=O)C(F)(F)F)c4)cc3)CC2)C1 + C[C@@H](N)c1ccc(C(=O)Nc2ccnc3[nH]ccc23)cc1 [RKI983] (first compound 0.4 µM, partner dose 0.4 µM)",79.3,56.3,33,52.9,71.3,96.4,85.5,82.7,89.1,33,10.9,94.5,85,69.8
"Cc1ccc(Nc2nccc(N(C)c3ccc4c(C)n(C)nc4c3)n2)cc1S(N)(=O)=O [Pazopanib] + Nc1ncn([C@H]2C[C@H](O)[C@@H](CO)O2)c(=O)n1 [decitabine] (first compound 0.4 µM, partner dose 0.1 µM)",70.2,97.8,70.6,76.3,83.4,98.1,88.8,89.9,92.1,70.4,103,83.1,88.8,72.7
"Cc1ccc(Nc2nccc(N(C)c3ccc4c(C)n(C)nc4c3)n2)cc1S(N)(=O)=O [Pazopanib] + C=CCNC1=C2C[C@@H](C)C[C@H](OC)[C@H](O)[C@@H](C)/C=C(\C)[C@H](OC(N)=O)[C@@H](OC)/C=C\C=C(/C)C(=O)NC(=CC1=O)C2=O [Tanespimycin] (first compound 0.4 µM, partner dose 0.002 µM)",82.4,103,71,94.4,91.4,96.7,78.2,82.9,79.6,86.9,89.1,88.3,70.8,86.5
"Cc1ccc(Nc2nccc(N(C)c3ccc4c(C)n(C)nc4c3)n2)cc1S(N)(=O)=O [Pazopanib] + Clc1ccc(Nc2nnc(Cc3ccncc3)c3ccccc23)cc1 [vatalanib] (first compound 0.4 µM, partner dose 2 µM)",78.3,98.4,86.2,85.4,104,93.2,97.1,89.6,101,94.2,86.5,74.8,83.6,90
"CC1(C)CCC(c2ccc(Cl)cc2)=C(CN2CCN(c3ccc(C(=O)NS(=O)(=O)c4ccc(N[C@H](CCN5CCOCC5)CSc5ccccc5)c(S(=O)(=O)C(F)(F)F)c4)cc3)CC2)C1 + COc1ccc(Cl)c(Nc2nc3ccccc3nc2NS(=O)(=O)c2cccc(NC(=O)C(C)(C)N)c2)c1 [XL147] (first compound 0.4 µM, partner dose 0.8 µM)",94.7,72.6,66.4,75.3,95.7,84.8,86.7,101,89.9,66.6,25.3,88.7,67.8,92
"Cc1ccc(Nc2nccc(N(C)c3ccc4c(C)n(C)nc4c3)n2)cc1S(N)(=O)=O [Pazopanib] + Nc1ccn([C@@H]2O[C@H](CO)[C@@H](O)C2(F)F)c(=O)n1 [gemcitabine] (first compound 0.4 µM, partner dose 0.0004 µM)",79.8,112,82.6,103,89,103,86,85.2,105,89.8,97.5,104,86.6,72.9
"Cc1ccc(Nc2nccc(N(C)c3ccc4c(C)n(C)nc4c3)n2)cc1S(N)(=O)=O [Pazopanib] + C[C@]1(O)C[C@@H](c2nc(-c3ccc4ccc(-c5ccccc5)nc4c3)c3c(N)nccn32)C1 [OSI906] (first compound 0.4 µM, partner dose 0.4 µM)",82.3,110,73.1,99.8,93.8,88.1,88.4,93.1,96.8,107,72.7,105,88.1,86.8
"O=C(/C=C/c1cccnc1)NCCCCC1CCN(C(=O)c2ccccc2)CC1 + NC(=O)c1ccc(N(C(N)=O)c2c(F)cccc2F)nc1-c1ccc(F)cc1F [VX702] (first compound 0.01 µM, partner dose 0.4 µM)",47,95.9,109,45.4,78.5,33.9,108,89.8,94.9,95.2,92.7,93.3,70.6,82.3
"CC1(C)CCC(c2ccc(Cl)cc2)=C(CN2CCN(c3ccc(C(=O)NS(=O)(=O)c4ccc(N[C@H](CCN5CCOCC5)CSc5ccccc5)c(S(=O)(=O)C(F)(F)F)c4)cc3)CC2)C1 + O=C(O)[C@@H]1[O][Sb](=[O])([O][Sb]2(=[O])[O][C@H]([C@H](O)CO)[C@H](O)[C@H](C(=O)O)[O]2)[O][C@H]([C@H](O)CO)[C@@H]1O [stibogluconate] (first compound 0.4 µM, partner dose 2 µM)",81.9,72.6,52.3,105,105,86.2,79.9,87.9,86.4,56.5,10.1,85.1,70.7,83.7
"O=C(/C=C/c1cccnc1)NCCCCC1CCN(C(=O)c2ccccc2)CC1 + C=C(c1ccc(C(=O)O)cc1)c1cc2c(cc1C)C(C)(C)CCC2(C)C [Bexarotene] (first compound 0.01 µM, partner dose 2 µM)",48.5,90.4,76.8,49.1,74.5,42.8,124,92.4,96.6,83.6,104,89.5,60.7,88.9
"Cc1ccc(Nc2nccc(N(C)c3ccc4c(C)n(C)nc4c3)n2)cc1S(N)(=O)=O [Pazopanib] + CC(=O)c1c(C)c2cnc(Nc3ccc(N4CCNCC4)cn3)nc2n(C2CCCC2)c1=O [palbociclib] (first compound 0.4 µM, partner dose 0.04 µM)",73.5,91.4,61.6,87.7,102,89.4,66.6,68.9,86,70.5,84.3,77.6,78.3,86.4
"O=C(/C=C/c1cccnc1)NCCCCC1CCN(C(=O)c2ccccc2)CC1 + CC(=O)c1c(C)c2cnc(Nc3ccc(N4CCNCC4)cn3)nc2n(C2CCCC2)c1=O [palbociclib] (first compound 0.01 µM, partner dose 0.04 µM)",42.1,82.9,79.5,49.9,93.2,64.4,73.6,81.9,89.6,62.5,83.2,61.4,69.2,79.7
"CC1(C)CCC(c2ccc(Cl)cc2)=C(CN2CCN(c3ccc(C(=O)NS(=O)(=O)c4ccc(N[C@H](CCN5CCOCC5)CSc5ccccc5)c(S(=O)(=O)C(F)(F)F)c4)cc3)CC2)C1 + CC(=O)O[C@@]12CO[C@@H]1C[C@H](O)[C@@]1(C)C(=O)[C@H](O)C3=C(C)[C@@H](OC(=O)[C@H](O)[C@@H](NC(=O)OC(C)(C)C)c4ccccc4)C[C@@](O)([C@@H](OC(=O)c4ccccc4)[C@H]21)C3(C)C [Docetaxel] (first compound 0.4 µM, partner dose 0.0001 µM)",38.4,40.3,16.1,27.3,27.2,50.2,15.4,37.1,47.9,35.1,8.31,20.2,34.2,48.4
"CC1(C)CCC(c2ccc(Cl)cc2)=C(CN2CCN(c3ccc(C(=O)NS(=O)(=O)c4ccc(N[C@H](CCN5CCOCC5)CSc5ccccc5)c(S(=O)(=O)C(F)(F)F)c4)cc3)CC2)C1 + CCCS(=O)(=O)Nc1ccc(F)c(C(=O)c2c[nH]c3ncc(Cl)cc23)c1F [PLX4720] (first compound 0.4 µM, partner dose 0.08 µM)",83.9,70.4,60.4,65,69.6,85.2,80.2,75.6,73.4,64.2,7.68,64.7,61.7,80.6
"O=C(/C=C/c1cccnc1)NCCCCC1CCN(C(=O)c2ccccc2)CC1 + CN(c1ncccc1CNc1nc(Nc2ccc3c(c2)CC(=O)N3)ncc1C(F)(F)F)S(C)(=O)=O [PF562271] (first compound 0.01 µM, partner dose 0.08 µM)",29.2,108,80.4,40.7,90.2,30.7,94.2,85.6,82.3,76.4,90.1,87.3,68.9,86
